Data reported in article PMC4336329 (PLoS ONE, 2015).
Among all 310,000 compounds or so, about 14,000 (4.5%) showed an effect of 50% or more. Effects have a minus sign here. The list shows a part of the results.

Biological target: human ether-à-go-go-related gene (hERG) potassium channel (human, UniProt Q12809)
Experiment: primary screen, population patch clamp on CHO cells stably expressing hERG
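Note: peak tail current of the secondary pulse compared with the same well before compound.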

human ether-à-go-go-related gene (hERG) potassium channel, sequence (Q12809 whole entry, looked up): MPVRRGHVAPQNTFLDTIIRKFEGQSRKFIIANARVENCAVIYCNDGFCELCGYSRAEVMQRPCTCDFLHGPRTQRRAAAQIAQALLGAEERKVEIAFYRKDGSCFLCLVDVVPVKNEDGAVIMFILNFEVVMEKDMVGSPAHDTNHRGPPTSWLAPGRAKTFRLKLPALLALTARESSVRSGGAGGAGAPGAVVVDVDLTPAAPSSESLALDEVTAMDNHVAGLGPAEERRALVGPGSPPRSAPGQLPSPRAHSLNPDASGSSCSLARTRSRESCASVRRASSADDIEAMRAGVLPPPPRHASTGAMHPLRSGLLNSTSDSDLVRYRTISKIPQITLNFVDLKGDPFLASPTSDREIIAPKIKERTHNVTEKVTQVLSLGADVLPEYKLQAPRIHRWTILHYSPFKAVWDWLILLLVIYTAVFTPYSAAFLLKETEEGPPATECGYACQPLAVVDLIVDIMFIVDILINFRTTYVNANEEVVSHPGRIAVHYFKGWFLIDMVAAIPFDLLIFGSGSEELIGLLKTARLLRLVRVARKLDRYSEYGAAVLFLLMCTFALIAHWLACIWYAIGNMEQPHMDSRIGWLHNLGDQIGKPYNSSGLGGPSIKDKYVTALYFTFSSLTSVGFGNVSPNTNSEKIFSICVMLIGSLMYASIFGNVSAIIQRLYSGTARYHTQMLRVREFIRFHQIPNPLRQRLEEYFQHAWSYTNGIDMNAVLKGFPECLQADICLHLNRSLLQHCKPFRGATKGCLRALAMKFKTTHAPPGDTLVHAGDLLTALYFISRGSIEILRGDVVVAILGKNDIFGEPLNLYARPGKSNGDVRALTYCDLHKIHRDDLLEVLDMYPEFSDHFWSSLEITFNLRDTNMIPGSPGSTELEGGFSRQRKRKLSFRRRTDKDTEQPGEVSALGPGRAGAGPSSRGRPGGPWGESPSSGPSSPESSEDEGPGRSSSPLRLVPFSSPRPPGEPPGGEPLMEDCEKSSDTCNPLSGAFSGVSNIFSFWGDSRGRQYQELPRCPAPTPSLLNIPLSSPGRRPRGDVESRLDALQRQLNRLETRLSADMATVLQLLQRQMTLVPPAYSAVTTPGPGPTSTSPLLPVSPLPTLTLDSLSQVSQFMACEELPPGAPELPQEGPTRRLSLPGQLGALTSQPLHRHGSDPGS

SMILES | hERG current change (%, negative = inhibition) at 10uM
[O-]/[N+](=C\c1ccncc1)c1ccccc1 | -3.2%
Cn1cnnc1SCc1ccc(C(=O)N/N=C(\CCC(=O)O)c2ccc(C(C)(C)C)cc2)cc1 | -13.3%
O=C1CCc2cc(S(=O)(=O)N3CCC(C(=O)Nc4nccs4)CC3)ccc2N1 | 4.1%
CC(C)CNC(=O)c1c(F)c(F)c(F)c(F)c1F | 10.7%
Oc1c(Cl)c(Cl)c(Cl)c(Cl)c1Cl | 31.2%
CCN1CCCC1CNC(=O)CSc1cc(=O)n(CC)c2ccccc12 (stereo not drawn) | -5.04%
COc1ccc(N2CCN(c3ncnc4nc[nH]c34)CC2)cc1 | 11%
CCCCC(=O)N(Cc1ccc(F)cc1)C1CCS(=O)(=O)C1 (stereo not drawn) | -8.15%
COC(=O)c1ccccc1COn1c(=O)c(C)[n+]([O-])c2ccccc21 | 5.48%
CC1CCN(S(=O)(=O)c2ccc3c(c2)N(CC(=O)NCCCN2C(C)CCCC2C)C(=O)CO3)CC1 (stereo not drawn) | 17.3%
CC(C)(CNC(=O)c1cccs1)N1CCOCC1 | -15.4%
Cc1ccc2nc(N3CCN(C(=O)c4ccco4)CC3)sc2c1 | -32%
CN(CCCC(=O)NCCc1ccccc1)S(=O)(=O)c1ccc([N+](=O)[O-])cc1 | -37.6%
CCOC(=O)C1(CCOc2ccccc2)CCN(Cc2ccccc2OC)CC1 | -71.4%
COc1ccc(Cl)cc1N/C(N)=N/c1nc(C)cc(=O)[nH]1 | 20%
CCOc1cc(C(=O)Nc2cnccn2)cc(OCC)c1OCC | -8.85%
S=c1[nH]nc(COc2ccccc2)n1/N=C/c1cccs1 | 0.38%
CC(C(=O)Nc1ccc2c(c1)OCCO2)c1ccc([N+](=O)[O-])cc1 (stereo not drawn) | 1.87%
CCc1ccc(N2C(=O)CC(N3CCN(c4ccccn4)CC3)C2=O)cc1 (stereo not drawn) | -6.78%
Cc1cc(=O)oc2cc(NC(=O)C3CCCC3)ccc12 | 10%
O=C(/C=C\NCC(=O)c1ccccc1)c1ccc(F)cc1 | -6.81%
CCNC(=S)N(CCc1c(C)[nH]c2ccc(OC)cc12)Cc1cccnc1 | -2.22%

SMILES | hERG current change (%, negative = inhibition) at 10uM
Cc1ccc(S(=O)(=O)N(C)CC(=O)Nc2cc(C)ccn2)cc1 | -10.9%
CCC(C)C(=O)Nc1nc2ccc(S(C)(=O)=O)cc2s1 (stereo not drawn) | 8.05%
Cc1ccc(S(=O)(=O)NCc2cc(=O)n(C)c(=O)n2C)cc1C | 23.2%
CCCCOC(=O)Cn1c(=O)c2c(nc3n2CCCCN3c2ccc(C)cc2)n(C)c1=O | -52.8%
Cc1ccc(NC(=O)Cc2nnc(SCC(=O)NC3CCCC3)n2C)cc1C | 2.33%
Cl.OC(CN1CCN(c2cccc(Cl)c2)CC1)C(c1ccccc1)c1ccccc1 (stereo not drawn) | -15.2%
Cc1ccc2nc(NC(=O)CSc3nc4ccccc4o3)sc2c1 | 14.4%
COc1ccc(N2CCN(C(=O)C(=O)c3c(C)n(C)c4ccccc34)CC2)cc1 | 10.4%
Cc1sc2ncnc(Sc3nnnn3-c3ccc(Cl)cc3)c2c1C | 11.2%
CCO[C@@H]1OC(C(=O)N2CCN(Cc3ccccc3)CC2)=C[C@H](C)[C@H]1CCCO | 3.35%
CCC(CO)(CO)N(CC(=O)Nc1ccc(OC)cc1)CC(=O)Nc1ccc(OC)cc1 | 17%
CNC(=O)C1CCN(S(=O)(=O)c2c(C)noc2/C=C/c2cccc(OC)c2)CC1 | -2.01%
COc1ccc(C(=O)Nc2ccccc2C(=O)N2CCCCC2C)cc1 (stereo not drawn) | 1.6%
CCN(CC(=O)Nc1ccccc1C(F)(F)F)C(=O)c1cc(-c2cccs2)nn1-c1ccccc1 | -1.42%
Cc1ccc(OCC(=O)NNC(=O)CCc2ccccc2)cc1 | 2.22%
O=[N+]([O-])c1cccc(-c2nnc(-c3ccc4c(c3)OCO4)o2)c1 | -2.42%
Fc1ccc(Nc2nnns2)cc1 | 18.2%
Cc1cc(C)nc(N/N=C/c2ccccc2OCC(=O)O)n1 | 16.3%
O=C(O)c1ccc(NC(CSCc2ccccc2F)C(=O)O)c([N+](=O)[O-])c1 (stereo not drawn) | 5.64%
Cl.O=C(CCS(=O)(=O)c1ccccc1)N(CCCN1CCOCC1)c1nc2ccc(F)cc2s1 | -28%
Cc1ccccc1OCCC(=O)OCC(=O)N(C)c1c(N)n(Cc2ccccc2)c(=O)[nH]c1=O | 8.18%
CCCN(CCC)CCCNC(=O)c1cc2cc3ccc(OC)cc3nc2o1 | -52.8%

SMILES | hERG current change (%, negative = inhibition) at 10uM
COc1ccc(-c2cc(-c3ccco3)[nH]c(=O)c2C#N)cc1OC | 3.6%
O=C(CSc1nnc(-c2ccc(Br)cc2)n1CCc1ccccc1)NC1CCS(=O)(=O)C1 (stereo not drawn) | -86.8%
O=C(O)CN1C(=O)SC(Nc2ccccc2)C1=O (stereo not drawn) | -7.83%
COc1ccc2oc(C(=O)OC(C)C(=O)NCc3ccccc3)c(C)c2c1 (stereo not drawn) | 5.77%
O=C(NCCC1=CCCCC1)C(=O)NCc1ccncc1 | 7.85%
O=C(CSc1ccc(-c2ccccn2)nn1)NCc1ccc(F)cc1 | -17.2%
COc1ccc(N(CC(=O)Nc2cc(OC)ccc2OC)S(C)(=O)=O)cc1 | -15.1%
Cc1ccc(C2=NS(=O)(=O)N(C)C(C(=O)N3CCCCC3)=C2)cc1 | -19.2%
N#Cc1nc(-c2ccco2)oc1N1CCC(C(N)=O)CC1 | -5.43%
Cc1c(C(=O)N2CCOCC2)c(S(=O)(=O)Nc2cccc(F)c2)c(C)n1C | 3.02%
COCCSc1nnc(NC(=O)Cc2cccs2)s1 | 6.61%
COc1cc(Br)cc(CNc2ccc(F)c([N+](=O)[O-])c2)c1O | 5.85%
CCOc1ccc(NC(=O)Cn2nnc(-c3ccccc3NC(=O)CC)n2)cc1 | -1.33%
COC(=O)N1c2ccccc2C=Cc2ccccc21 | 17.5%
CCCSc1nnc(-c2c[nH]c3ccccc23)n1CC | -11.6%
CCOc1ccccc1Oc1ccc(C(F)(F)F)cn1 | 13.3%
O=c1[nH]c(C2CCN(S(=O)(=O)c3ccc4c(c3)OCCO4)CC2)nc2c1nnn2Cc1c(F)cccc1Cl | 5.79%
COc1ccc2nc(SCC(=O)Nc3ccccc3C)[nH]c2c1 | -9.44%
O=S1(=O)C=C(SCc2ccc(Cl)c(Cl)c2)Nc2ccccc21 | -14.5%
COc1ccc(CC(C)CC(=O)Nc2ccc(OC)cc2)cc1 (stereo not drawn) | 9.05%
COc1ccc(-c2[nH]c(-c3ccc(C(=O)O)cc3)nc2-c2ccccc2)cc1 | 5.89%
O=C(NCC(c1cccs1)N1CCOCC1)c1cc(S(=O)(=O)N2CCOCC2)ccc1F (stereo not drawn) | -25.4%

SMILES | hERG current change (%, negative = inhibition) at 10uM
C/C=C/c1cc(OC)c2c(c1)[C@H](C)[C@@H](c1ccc(O)c(OC)c1)O2 | 15.9%
COc1ccccc1C(=O)CC(=O)c1ccccc1 | 15.2%
O=C(NC(Cc1ccccc1)C(=O)O)/C(=C/c1ccc(Cl)cc1)NC(=O)c1ccccc1 (stereo not drawn) | 13.2%
Cc1cccc(-c2nnn3c2nc(NCCc2ccc(S(N)(=O)=O)cc2)c2ccccc23)c1 | 23.3%
O=C(O)CC(NC(=O)OCc1ccccc1)c1ccc(Br)cc1 (stereo not drawn) | 20.2%
CN(N)c1nc(-c2ccccc2)nnc1C(F)(F)F | 9.96%
COC(CSc1nc(N)c2c3c(sc2n1)CN(C)CC3)OC | 5.88%
Cc1ccc(CNC(=O)C23CN(Cc4ccccc4)CC2C(c2cccc([N+](=O)[O-])c2)=NO3)cc1 (stereo not drawn) | -0.125%
O=C(Nc1nncs1)c1cccc(S(=O)(=O)N2CCCCC2)c1 | -15.7%
COc1ccc(NC(=O)COC(=O)c2ccncc2)c(OC)c1 | -5.88%
Cc1ccc(C(c2sc3nc(C)nn3c2O)N2CCN(c3ccccc3F)CC2)cc1 (stereo not drawn) | -37.4%
O=C(c1ccco1)N1CCN(C(=O)C(Cc2ccccc2)NS(=O)(=O)c2cccs2)CC1 (stereo not drawn) | -28.3%
Cc1cccc(C(=O)NNC(=O)C2CCN(C(=O)OC(C)(C)C)CC2)c1 | 12.2%
O=C(Nc1ccccc1F)c1ccc(Cn2cc(Br)cn2)cc1 | -4.78%
Cc1nn(C(C)C(=O)NNC(=S)Nc2ccc(F)cc2)c(C)c1[N+](=O)[O-] (stereo not drawn) | 13.4%
Cc1nn(Cc2ccccc2)c(C)c1C(=O)OCC(=O)NC1CCS(=O)(=O)C1 (stereo not drawn) | 0.704%
CCC1(c2ccc(F)cc2)NC(=O)N(CC(=O)Nc2ccc(N3CCCCC3)cc2)C1=O (stereo not drawn) | -15.4%
COCCN(CC1CCCN(C2Cc3ccccc3C2)C1)C(=O)CCSC (stereo not drawn) | -45.8%
O=C1N=C(N2CCOCC2)S/C1=C\C=C/c1ccccc1 | -58.2%
COc1cc(C(=O)NNC(=O)C2CSC3(C)CCC(=O)N23)cc(OC)c1OC (stereo not drawn) | 0.132%
COc1ccccc1C1c2ccc3ccccc3c2Oc2ncn(CCCO)c(=N)c21 (stereo not drawn) | -66.6%
